From PMC5519287 (Cell reports, 2017)

B1: EGFP-S1C F394H (domain or fragment)
chain: not shown
B2: EGFP-S1C (wt) (domain or fragment)
chain: not shown
B3: EGFP-S1C R429C (domain or fragment)
chain: not shown

Biological target: the molecule itself
Experiment: single molecule analysis

Stoichiometry N, 2:
B1
B2
B3
